Target: T1, CD37 (human) (UniProt P11049)
T1 sequence (looked up): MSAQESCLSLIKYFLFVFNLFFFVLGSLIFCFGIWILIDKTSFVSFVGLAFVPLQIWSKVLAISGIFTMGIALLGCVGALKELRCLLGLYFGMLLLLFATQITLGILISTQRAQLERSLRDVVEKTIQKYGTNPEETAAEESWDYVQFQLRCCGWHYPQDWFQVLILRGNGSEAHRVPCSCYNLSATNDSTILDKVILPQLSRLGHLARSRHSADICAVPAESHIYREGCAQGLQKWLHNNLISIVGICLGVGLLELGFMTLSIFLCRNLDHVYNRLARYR
Experiment: cell-based or functional assay

B1: SMIP016 (Fc fusion, from a related filing)
chain: DIQMTQSPASLSASVGETVTITCRTSENVYSYLAWYQQKQGKSPQLLVSFAKTLAEGVPSRFSGSGSGTQFSLKISSLQPEDSGSYFCQHHSDNPWTFGGGTELEIKGGGGSGGGGSGGGGSSAVQLQQSGPESEKPGASVKISCKASGYSFTGYNMNWVKQNNGKSLEWIGNIDPYYGGTTYNRKFKGKATLTVDKSSSTAYMQLKSLTSEDSAVYYCARSVGPMDYWGQGTSVTVSSDL[in this place human IgG1 Fc with changes]
For B1, the IC50 (nM), direct growth inhibition of DoHH2 cells, 96 h, ATP detection was > 100 nM and the IC50 (nM), direct growth inhibition of SU-DHL-6 cells, 96 h, ATP detection was > 100 nM.

From patent publication US20140154252A1
